# Results taken from publication PMC4336329 (PLoS ONE, 2015).
# Out of some 310,000 compounds screened, about 2,200 (0.71%) showed an effect of 50% or more. Effects have a minus sign here. The list shows a part of the results.
# Target: human ether-à-go-go-related gene (hERG) potassium channel (human, UniProt Q12809)
# Assay: primary screen, population patch clamp on CHO cells stably expressing hERG
# Chain of human ether-à-go-go-related gene (hERG) potassium channel (Q12809 whole entry, looked up): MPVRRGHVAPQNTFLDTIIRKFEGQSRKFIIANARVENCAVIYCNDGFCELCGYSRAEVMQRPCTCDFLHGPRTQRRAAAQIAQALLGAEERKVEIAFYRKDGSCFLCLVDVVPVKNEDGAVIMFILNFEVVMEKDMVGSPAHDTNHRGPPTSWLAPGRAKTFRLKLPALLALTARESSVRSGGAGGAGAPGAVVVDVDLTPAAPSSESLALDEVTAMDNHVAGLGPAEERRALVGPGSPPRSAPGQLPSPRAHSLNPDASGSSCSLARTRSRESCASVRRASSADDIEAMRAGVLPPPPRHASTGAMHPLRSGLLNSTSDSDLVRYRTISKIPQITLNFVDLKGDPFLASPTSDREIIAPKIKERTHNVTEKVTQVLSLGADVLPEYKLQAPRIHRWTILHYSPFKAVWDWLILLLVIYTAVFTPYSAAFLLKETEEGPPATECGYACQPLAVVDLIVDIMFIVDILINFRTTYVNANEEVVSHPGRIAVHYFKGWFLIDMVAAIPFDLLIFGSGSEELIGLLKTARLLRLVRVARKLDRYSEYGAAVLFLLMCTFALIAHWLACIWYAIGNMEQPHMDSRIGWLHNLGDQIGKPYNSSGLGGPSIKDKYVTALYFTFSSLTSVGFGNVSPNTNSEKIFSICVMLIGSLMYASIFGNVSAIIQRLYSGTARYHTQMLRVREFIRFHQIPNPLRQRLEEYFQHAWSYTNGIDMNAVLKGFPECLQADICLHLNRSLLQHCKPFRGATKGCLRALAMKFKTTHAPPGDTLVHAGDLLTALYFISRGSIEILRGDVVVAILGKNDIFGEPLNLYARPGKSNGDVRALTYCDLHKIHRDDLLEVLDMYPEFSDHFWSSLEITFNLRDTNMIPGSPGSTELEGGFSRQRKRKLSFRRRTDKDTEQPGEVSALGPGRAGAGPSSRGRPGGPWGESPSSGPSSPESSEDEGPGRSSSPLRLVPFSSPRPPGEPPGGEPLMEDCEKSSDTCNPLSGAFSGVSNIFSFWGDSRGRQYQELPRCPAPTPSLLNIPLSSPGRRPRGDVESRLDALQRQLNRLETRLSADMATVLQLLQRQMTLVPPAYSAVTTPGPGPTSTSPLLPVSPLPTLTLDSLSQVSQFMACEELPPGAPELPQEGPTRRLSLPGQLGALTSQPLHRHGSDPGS
row,Compound,"hERG current change (%, negative = inhibition) at 1uM [%]"
1,O=C1OCCN1C(=O)[C@H]1[C@H](c2ccc(Cl)cc2)C(c2cccc(Cl)c2)=NN1c1ccccc1,11.8
2,Cc1nc(C)c(C(=O)Nc2ccccc2-c2ccccc2)o1,-6.21
3,CCN(CC)c1ccc(N=Cc2c(O)n(-c3ccccc3)c(=O)[nH]c2=O)cc1,-9.51
4,COC(=O)C1=C[C@@H](C(=O)OC)C2C3=C(C(=O)C24CCCCC4)[C@H](C)n2c(=O)n(-c4ccccc4)c(=O)n2[C@@H]3C1 (stereo partly drawn),6.19
5,COc1ccc(C2=NN(CCC(=O)NC3CCC(C)CC3)C(=O)CC2)cc1 (stereo not drawn),16.8
6,CCCNC(=O)COc1ncnc2sc(C)c(C)c12,12.6
7,CCNC(=O)NC(=O)C(C)Oc1ccc(Br)cc1Br (stereo not drawn),7.63
8,CCCC(C)C(=O)OCC(=O)Nc1c(Br)cc(C)cc1Br (stereo not drawn),9.86
9,CCN(CC)C(=O)c1[nH]cnc1C(=O)NCCCCCNC(=O)OC(C)(C)C,10.6
10,CCn1cc(C(=O)O)c(=O)c2cc(F)c(N3CCN(C(=S)NC(=O)c4ccc(OC)cc4)CC3)cc21,14
11,Cc1ccc2nc(SC(C)C(=O)N3CCOCC3)[nH]c2c1 (stereo not drawn),11.5
12,CCN(C(=O)c1cc2c(=O)n3cccc(C)c3nc2s1)C1CCCCC1,17.6
13,Cc1noc(C)c1C(=O)N1CCC2(CC1)OCCO2,25.3
14,CC(C)CNC(C(=O)Nc1ccc([N+](=O)[O-])cc1Br)c1ccccc1.O=C(O)C(=O)O (stereo not drawn),5.4
15,O=S(=O)(CC(O)CS(=O)(=O)c1ccc(Cl)cc1)c1ccccc1 (stereo not drawn),11.5
16,CCC(=O)N1CCc2cc(S(=O)(=O)NC(C(=O)N3CCN(c4ccc(F)cc4)CC3)C(C)C)ccc21 (stereo not drawn),12.3
17,CN(c1cccc(NC(=O)c2ccccc2N(C)S(C)(=O)=O)c1)S(C)(=O)=O,13.2
18,Cc1noc(C)c1C(=O)NC(C)c1ccc2c(c1)OCO2 (stereo not drawn),-6.53
19,COCCN1C(=O)c2ccccc2C(C(=O)NCC2CCCO2)C1c1c[nH]c2ccccc12 (stereo not drawn),3.73

row,Compound,"hERG current change (%, negative = inhibition) at 1uM [%]"
1,CSC1=C(C#N)C(c2cccc(Br)c2)CC(=O)N1 (stereo not drawn),-4.2
2,CCc1nnc(NS(=O)(=O)c2ccc(NC(=S)NC(=O)c3ccncc3)cc2)s1,3.94
3,CC(OC(=O)CSc1ccc([N+](=O)[O-])cc1)C(=O)NCc1ccccc1 (stereo not drawn),21.4
4,O=C(O)c1cc(S(=O)(=O)Nc2ccccc2Cc2ccccc2)ccc1Cl,26.3
5,COc1ccc(C(C)=O)cc1COc1ccc(Cl)c(C)c1,11.9
6,c1ccc(CSc2nnc3ccc(-c4ccncc4)nn23)nc1,11.6
7,CCc1ccc(S(=O)(=O)Nc2ccc(O)c3c(=O)cc(-c4ccccc4Cl)oc23)cc1,9.83
8,O=C(COC(=O)/C=C/c1ccc(Cl)cc1Cl)NCc1ccco1,8.68
9,CC(=O)NC(C)C12CC3CC(CC(CC(=O)O)(C3)C1)C2 (stereo not drawn),17.4
10,O=C(CNC(=O)C12CC3CC(CC(C3)C1)C2)N/N=C\c1ccco1,5.89
11,COc1cccc(-c2cc(C(=O)NCCCN3CCOCC3)no2)c1,5.83
12,COCCNC(=S)N/N=C/c1ccc(OCc2ccc(C(=O)OC)cc2)c(OC)c1,21.3
13,CCOC(=O)CSc1nc2c(sc(=S)n2-c2ccc(OCC)cc2)c(=O)[nH]1,11.9
14,CCCCNC(=S)NNC(=O)c1cc(C)on1,13
15,O=C(CSc1nc(=O)[nH]c2c1CCCC2)Nc1ccc(F)cc1F,8.05
16,O=C(CCCN1C(=O)/C(=C/c2cccs2)SC1=S)Nc1ccccn1,24.2
17,Fc1ccc(C2CCCCN2Cc2nc(CC3CC3)no2)cc1 (stereo not drawn),6.08
18,CCC(=O)Nc1nc2cc(OC)ccc2s1,0.782
19,CCOC(=O)C(NC(=O)c1ccccc1)(N1CCOCC1)C(F)(F)F (stereo not drawn),9.8

row,Compound,"hERG current change (%, negative = inhibition) at 1uM [%]"
1,CCc1ccc(NC(=O)CS(=O)CC(=O)N2CCN(c3ccccc3F)CC2)cc1 (stereo not drawn),9.52
2,COC(=O)c1cc2c(s1)-c1cc(F)ccc1OC2,13.6
3,Cc1nc(SCc2ccccc2)c(C(F)(F)F)c(=O)[nH]1,10.8
4,O=C(NCc1ccccc1)c1cccn(Cc2cccc(Cl)c2)c1=O,7.25
5,Cc1nc(SCC(=O)Nc2cc(C)on2)c2c3c(sc2n1)CCCC3,8.56
6,O=C(N[C@H]1CCCCNC1=O)c1cc(COc2ccc(F)cc2F)on1,12.4
7,O=C(COC(=O)CNC(=O)c1cccc([N+](=O)[O-])c1)Nc1ccccc1OC(F)F,2.85
8,O=C(COc1ccc(F)cc1Cl)Nc1ccc(N2CCOCC2)cc1N1CCOCC1,6.92
9,COc1ccc(OCCCC(=O)NCc2ccco2)cc1,4.9
10,CCc1n[nH]c2c1C(=O)CC(C)(C)C2,11.1
11,COc1ccccc1N1CCN(CC(=O)NCc2ccc(Cl)cc2)CC1,8.14
12,O=C(O)/C(=C\c1cccc(F)c1)c1ccc(S(=O)(=O)N2CCCC2)s1,10.6
13,O=C(NCCc1ccccc1)c1cnc2n(c1=O)CCS2,9.68
14,O=C(COC(=O)c1ccc2c(c1)OCCO2)NC1CCCCC1,14.9
15,CC(=O)Nc1ccc(Nc2nc(C)c([N+](=O)[O-])c(Nc3ccccc3)n2)cc1,10.4
16,O=C1CCCC(O)=C1C=NCc1ccccc1,8.52
17,CCN(Cc1cc2ccccc2[nH]c1=O)S(=O)(=O)c1ccc(OC)cc1,9.36
18,Cc1nc(CSc2nnc(Nc3cccc(C)c3C)s2)cs1,14.4
19,Cc1cccc(/C=N/NC(=O)c2cc(Br)ccc2OCc2ccccc2)n1,8.57
